Data on 25 compounds can be found in PMC4336329 (PLoS ONE, 2015).

Out of some 310,000 compounds screened, about 14,000 (4.5%) showed an effect of 50% or more. Effects have a minus sign here. Some of the results follow.
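Note: peak tail current of the secondary pulse compared with the same well before compound.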

The target of this assay is human ether-à-go-go-related gene (hERG) potassium channel (human, UniProt Q12809). The assay can be described thus: primary screen, population patch clamp on CHO cells stably expressing hERG.
Chain of human ether-à-go-go-related gene (hERG) potassium channel (Q12809 whole entry, looked up): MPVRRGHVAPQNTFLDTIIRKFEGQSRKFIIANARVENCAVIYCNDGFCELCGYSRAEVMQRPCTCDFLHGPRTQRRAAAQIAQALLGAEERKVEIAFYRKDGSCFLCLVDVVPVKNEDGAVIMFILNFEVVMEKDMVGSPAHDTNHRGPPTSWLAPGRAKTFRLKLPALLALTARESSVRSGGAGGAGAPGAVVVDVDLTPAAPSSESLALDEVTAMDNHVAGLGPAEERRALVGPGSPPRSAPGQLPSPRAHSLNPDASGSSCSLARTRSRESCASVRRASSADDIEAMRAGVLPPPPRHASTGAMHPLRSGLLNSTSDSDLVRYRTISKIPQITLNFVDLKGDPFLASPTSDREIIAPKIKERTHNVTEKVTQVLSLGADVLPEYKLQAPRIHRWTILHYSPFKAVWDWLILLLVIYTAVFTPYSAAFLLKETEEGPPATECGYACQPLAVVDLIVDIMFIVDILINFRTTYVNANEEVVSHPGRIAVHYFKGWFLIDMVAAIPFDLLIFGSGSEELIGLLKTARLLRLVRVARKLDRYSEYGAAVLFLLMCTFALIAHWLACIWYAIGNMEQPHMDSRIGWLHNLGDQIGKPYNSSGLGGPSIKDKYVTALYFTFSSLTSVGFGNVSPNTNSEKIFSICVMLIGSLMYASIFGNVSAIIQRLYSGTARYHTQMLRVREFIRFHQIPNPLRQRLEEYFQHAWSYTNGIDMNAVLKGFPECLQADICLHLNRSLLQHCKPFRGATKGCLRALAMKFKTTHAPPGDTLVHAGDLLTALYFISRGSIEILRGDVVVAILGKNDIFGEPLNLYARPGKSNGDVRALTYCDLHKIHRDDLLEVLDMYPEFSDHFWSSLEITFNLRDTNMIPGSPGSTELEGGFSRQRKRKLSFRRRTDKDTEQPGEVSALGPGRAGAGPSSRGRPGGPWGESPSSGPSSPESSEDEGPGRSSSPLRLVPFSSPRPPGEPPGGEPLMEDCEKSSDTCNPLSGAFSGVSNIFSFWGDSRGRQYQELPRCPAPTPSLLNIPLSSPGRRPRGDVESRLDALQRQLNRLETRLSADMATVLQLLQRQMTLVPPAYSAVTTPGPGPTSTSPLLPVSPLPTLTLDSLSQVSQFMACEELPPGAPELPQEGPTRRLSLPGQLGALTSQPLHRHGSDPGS
As for `COC(c1ccccc1)(c1ccccc1)C(Oc1nc(C)cc(C)n1)C(=O)O` (stereo not shown), the “hERG current change (%, negative = inhibition) at 10uM” value is listed as 24.8%. With `Cn1c(SCCC(=O)O)nnc1-c1ccncc1`, the “hERG current change (%, negative = inhibition) at 10uM” value was determined as 1.73%. For `COc1ccc(C2C(C(=O)c3cccs3)=C(O)C(=O)N2c2nncs2)cc1` (stereo not shown), the “hERG current change (%, negative = inhibition) at 10uM” value was 6.77%. For the compound `CCn1c(C)c(C(C)=O)cc(C#N)c1=O`, the “hERG current change (%, negative = inhibition) at 10uM” value is recorded as -4.92%. The result for `COc1ccc(NC(=O)CSc2nc(C)cs2)cc1OC` reads -1.36%; that for `CC(C)Oc1cccc(C(=O)Nc2ccccc2N2CCOCC2)c1`, -28.3%; that for `CCCc1nn2c(=O)cc(CSCC(=O)Nc3nnc(CC)s3)nc2s1`, 15.5%. With `Cc1cc(=O)cc(C)n1-c1ccccc1N1CCOCC1`, the “hERG current change (%, negative = inhibition) at 10uM” value worked out at 16.7%. As for `Cc1sc2nc(CSCC(=O)Nc3ccc(C(=O)N(C)C)cc3)[nH]c(=O)c2c1C`, the “hERG current change (%, negative = inhibition) at 10uM” value was 17.2%.

Take `O=c1oc(-c2ccco2)nc2sc3c(c12)CCCC3`: the “hERG current change (%, negative = inhibition) at 10uM” value was determined as 17.3%.

`COc1ccc(CCNC(=O)CCCn2c(=O)c3cccn3c3cccnc32)c(OC)c1`: the “hERG current change (%, negative = inhibition) at 10uM” value was 1.9%.

As for `CC(C)CNS(=O)(=O)c1ccc(S(=O)(=O)N2CCN(C3CCCC3)CC2)cc1`, the “hERG current change (%, negative = inhibition) at 10uM” value was 3.47%. For `CCCNC(=O)C1CCN(S(=O)(=O)c2ccc3nc4c(c(C(=O)O)c3c2)CCCCC4)CC1` the value was 16.2%. For `Cc1ccccc1-n1c(C)nnc1SCC(=O)N1CC(=O)Nc2ccccc21` the value was 0.973%; for `COc1ccc(C(=O)OC(C)C(=O)NC(C)CCc2ccccc2)cc1[N+](=O)[O-]` (stereo not shown), -7.64%. As for `CN(C)CCCNc1oc(/C=C/c2cccs2)nc1S(=O)(=O)c1ccccc1`, the “hERG current change (%, negative = inhibition) at 10uM” value is listed as -39.5%.

For the compound `CCOc1ccc(OCC)c(NC(=O)CCS(=O)(=O)c2ccc(C)cc2)c1`, the “hERG current change (%, negative = inhibition) at 10uM” value was -10.7%. For `O=C(NC(=S)Nc1cccnc1Cl)c1ccc(Cl)cc1` the value was 15.5%; for `Cc1cccc(Oc2nc(CN3CCOCC3)nc3sc4c(c23)CCCC4)c1`, -29.7%. Turning to `CC(=O)Nc1ccc(-c2cc(C(=O)O)c3ccc(C)cc3n2)cc1`, the “hERG current change (%, negative = inhibition) at 10uM” value is 8.4%. The result for `O=C(O)c1ccccc1NC(=O)N1CCOCC1` reads 8.57%. For `CN1/C(=C\C(=O)COC(=O)c2ccco2)C(C)(C)c2ccccc21` the value was -3.6%; for `CCC(CC)NC(=O)/C=C/c1cccc([N+](=O)[O-])c1`, -8.05%; for `Cc1cccc([N+](=O)[O-])c1NC(=O)COC(=O)C1CCCO1` (stereo not shown), 20.1%.

Turning to `O=C(NC(=O)c1ccccc1)OCCN1C(=O)c2ccccc2C1=O`, the “hERG current change (%, negative = inhibition) at 10uM” value was -24%.
